Experimental findings from PubChem BioAssay AID485344 (National Center for Advancing Translational Sciences (NCATS), 2010) are described below.

SMILES strings stand for the structures. Screen size: about 340,000 compounds; about 6,900 (2%) were called active. Rule as the data show it: active = inhibition above about 30%; inactive = below that, where a call was filed. The list shows a part of the results, in another mix than the full data. Entries without a call were filed so in the source.

The target of this test is D(2) dopamine receptor (Homo sapiens) (UniProt P14416). The test is described as follows: HTS Assay for Allosteric Antagonists of the Human D2 Dopamine Receptor: Primary Screen for Antagonists. Also: 0% is about no effect. As to conditions: HEK293 TREx D2 cells, calcium flux, dopamine EC80; at 10 µM; stronger effect = higher value. In a few lines: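 Tetracycline-induced HEK293 TREx cells expressing D2 receptor forced-coupled to calcium signalling, loaded with no-wash calcium dye. Compounds added and calcium flux read 180 s, then dopamine added at EC80 and read a further 180 s.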
UniProt P14416, sequence (P14416 whole entry, looked up): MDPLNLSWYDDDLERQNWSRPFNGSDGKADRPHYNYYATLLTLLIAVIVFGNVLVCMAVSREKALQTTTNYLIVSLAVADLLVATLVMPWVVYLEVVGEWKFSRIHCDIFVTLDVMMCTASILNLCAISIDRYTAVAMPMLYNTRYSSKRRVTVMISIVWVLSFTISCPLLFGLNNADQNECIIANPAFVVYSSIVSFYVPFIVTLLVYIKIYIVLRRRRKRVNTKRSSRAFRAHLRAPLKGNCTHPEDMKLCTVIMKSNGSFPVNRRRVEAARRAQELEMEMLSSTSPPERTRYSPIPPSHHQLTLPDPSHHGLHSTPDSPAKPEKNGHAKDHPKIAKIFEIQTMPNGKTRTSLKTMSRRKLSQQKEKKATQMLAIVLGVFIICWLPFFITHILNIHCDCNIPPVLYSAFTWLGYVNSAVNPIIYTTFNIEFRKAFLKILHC
Turning to `Cc1ccc2nc3c(cc(C#N)c(=O)n3-c3nnc(SCc4ccccc4)s3)c(=O)n2c1`, the inhibition is -5.89%. For `COc1cc(NC(=O)Cn2cc(C(=O)c3ccc(F)cc3)c(=O)c3ccc(C)nc32)cc(OC)c1` the value was 7.41%; for `CCOc1ccc(NC(=O)c2ncoc2-c2ccco2)cc1`, 7.5%. The same measure for `CCOc1ccc(-c2nc3c(c(SCC(=O)N4CCCCC4)n2)Cc2cccc(OC)c2O3)cc1`: 9.61%; for `COc1ccccc1NS(=O)(=O)c1ccc(NN=C2CCCC2)c([N+](=O)[O-])c1`: active: 34.4%. Consider `CCCCN1C(=O)C(O)(CC(=O)c2ccc(C(C)(C)C)cc2)c2ccccc21` (stereo not given), for which the inhibition was -7.72%. `Cc1ccc(-c2cc(C(=O)NCc3ccccc3Cl)c3ccccc3n2)cc1C`: the inhibition is 6.07%. The same measure for `COc1ccc2cc3c(N)nn(C(=O)c4ccc(OC)c(OC)c4)c3nc2c1`: -14.4%; for `O=C(Nc1ccccc1C(F)(F)F)n1ncc2cc(Cl)ccc21`: -13.3%; for `CCOC(=O)c1[nH]c2ccccc2c1NC(=O)c1ccc(Br)cc1`: -8.97%. The same measure for `COc1cccc(CNC(=O)C2CCN(S(=O)(=O)c3ccc4c(c3)CCCN4C(C)=O)CC2)c1`: 2.98%. Consider `Cc1ccc2c(c1)N(CCCC(=O)Nc1cccc(C(F)(F)F)c1)C(=O)CO2`, for which the inhibition was found to be 8.14%.

For the compound `CCc1ccc(NC(=O)Cn2c(=O)n(CCCCC(=O)NCCc3ccc(Cl)cc3)c(=O)c3ccccc32)cc1`, the inhibition is -8.02%. The same measure for `Cc1ccc2ncc(C(=O)Nc3ccc(OC(F)(F)F)cc3)c(=O)n2c1`: 25.5%; for `CCOC(=O)c1c(NC(=O)c2nc(S(C)(=O)=O)ncc2Cl)sc(C(C)=O)c1C`: -17.7%; for `O=c1[nH]c2ccc(NCc3ccc(-c4ccc(Br)cc4)o3)cc2[nH]1`: 5.75%. For the compound `O=C1CCCc2cc(S(=O)(=O)N3CCCC(C(=O)NCc4ccc(Cl)cc4)C3)ccc2N1` (stereo not given), the inhibition was -4.94%. For the compound `COc1cc(OC)cc(-c2nc(-c3ccc4c(c3)[nH]c(=O)n4C)no2)c1`, the inhibition amounted to 2.79%. In the case of `Cc1ccccc1-c1nnn(CC(=O)Nc2sc3c(c2C#N)CCC(C(C)(C)C)C3)n1` (stereo not given), the inhibition is -1.07%. On to `COC(=O)c1cc(NC(=O)Cc2cc(OC)c(OC)c(OC)c2)cc(C(=O)OC)c1`, for which the inhibition was active: 40.3%. The same measure for `COc1cccc(C2CC(=O)Nc3c2c(=O)[nH]c2nc4ccccc4n32)c1` (stereo not given): -21%; for `COc1ccc(C(=O)NCC(c2ccc3c(c2)OCO3)N2CCN(c3ccccc3F)CC2)cc1` (stereo not given): 25.5%. For `Cc1cc(-c2ccc(C(C)C)c(S(=O)(=O)Nc3ccccn3)c2)on1` the value was active: 31.2%; for `O=C(COc1ccc([N+](=O)[O-])cc1)Nc1nc2c(s1)CCCC2`, 14.7%; for `O=C(NCC(c1ccc(Cl)cc1)N1CCOCC1)c1ccccc1F` (stereo not given), 9.32%. As for `CCOc1ccc(-c2nnc(SCC(=O)Nc3cccc(OC)c3)nc2-c2ccc(OCC)cc2)cc1`, the inhibition was -16.2%. Consider `CSc1nc(Nc2ccc(F)cc2)cc(-c2ccccc2)n1`, for which the inhibition was -5.99%.

Regarding `CCOc1ccc(-c2nn(-c3ccccc3)cc2C2NC(=O)NC(C)=C2C(=O)OC(C)C)cc1` (stereo not given), the inhibition is -16.4%. The same measure for `CCCCOc1ccc(C(=O)Nc2ccc(-c3cc4ccccc4oc3=O)cc2)cc1`: -4.22%; for `CC(C)(C)OC(=O)N1CCC(c2c(C(=O)NCCN3CCc4ccccc4C3)cnn2-c2ccc(F)cc2)CC1`: 5.33%. For `Cc1ccc(CNC(=O)Nc2cc(C(=O)NCc3ccc(C(C)C)cc3)ccc2N2CCCC2)cc1`, the inhibition is 10.6%. Regarding `CC(C)c1ccc(OCC(=O)NCCS(=O)(=O)N2CCN(c3ccc(F)cc3)CC2)cc1`, the inhibition was -11.1%. As to `Cc1c(Cl)cccc1NC(=O)c1ccc2c(c1)CCCN2S(C)(=O)=O`, the inhibition stood at 1.16%. For `CCn1c(=O)cc(SCC(=O)NCc2cccc(Cl)c2)c2ccccc21` the value was -1.3%. As to `COc1ccc(Cn2c(C(=O)O)c(CNC3CCCC3)c3ccc(OC)cc32)cc1`, the inhibition was determined as 4.4%. Regarding `COc1ccccc1C(=O)N1c2ncnn2C2(CCCCC2)[C@@H]2CCCC[C@@H]21`, the inhibition was 0.248%. For `CCOC(=O)c1ccc(NC(=O)C(CC)Sc2nc3ccncc3[nH]2)cc1` (stereo not given) the value was 11.6%; for `Cc1cc(C)cc(-n2c(C)cc(C(=O)C(=O)Nc3ccccc3F)c2C)c1`, -1.59%; for `Cc1ccccc1CN1C(=O)c2ccccc2S(=O)c2ccc(C(=O)NCc3ccc(Cl)cc3)cc21` (stereo not given), 3.73%. For `CCC(=O)C1=C(c2ccc(F)cc2)N(C(=O)CC)n2cnnc2S1` the value was 10.4%; for `CCCOc1ccc(-c2cccc(NS(=O)(=O)c3ccccc3)c2)nn1`, -8.95%. The same measure for `COc1ccccc1N1CCN(CC(O)c2ccc3cc[nH]c3c2)CC1` (stereo not given): active: 59.6%.

Take `Cc1ccc2cccc(NC(=O)c3ccc(OC(C)C)cc3)c2n1`: the inhibition is 5.78%. For `O=C(NCc1ccc2c(c1)OCO2)c1ccc2c(c1)N(Cc1ccccc1F)C(=O)c1ccccc1S2` the value was -15.7%. The same measure for `CCc1ccccc1NC(=O)CN(c1ccccc1)S(=O)(=O)c1ccsc1C(=O)OC`: 9.19%; for `CCc1ccccc1NC(=O)Cn1cc(S(=O)(=O)N2CCCC2)c(S(=O)(=O)N2CCCC2)c1`: 6.11%; for `O=C(c1ccco1)N(Cc1cccnc1)c1nc2c(F)cc(F)cc2s1`: 14.3%.

For the compound `COc1ccccc1NC(=O)CSc1nncn2c1cc1sccc12`, the inhibition worked out at 8.95%. For `Cc1ccccc1CNC(=O)c1ccc2nc(SCc3ccc(F)cc3)n(C)c2c1` the value was 2.71%; for `CCOCCCNC(=O)C(c1ccccc1)N(Cc1ccc2c(c1)OCO2)C(=O)c1ccc(NC(C)=O)cc1` (stereo not given), 4.8%. For `Cc1c(C(=O)NCCN(C)C)oc2ccc(S(=O)(=O)N3CCC4(CC3)OCCO4)cc12` the value was active: 33.4%; for `CCc1ccc(NC(=O)CSc2nccn2-c2ccc(F)cc2)cc1`, 16.2%; for `COc1ccc(N2CC(NC(=O)/C=C\c3ccc4c(c3)OCO4)CC2=O)cc1OC` (stereo not given), -4.89%. For `COc1ccc(NC(=O)CN(C)S(=O)(=O)c2ccc3c(c2)CCCN3C(C)=O)cc1` the value was -11.8%; for `CCSc1nc2n(n1)C(c1ccc(Cl)cc1Cl)C(C(=O)Nc1ccccc1C)=C(C)N2` (stereo not given), -23.1%. For the compound `CCCCOc1ccc(C(=O)N(Cc2ccc(N(C)C)cc2)Cc2ccco2)cc1`, the inhibition is -1.96%. In the case of `Cc1ccc(-n2ccn(CC(=O)NCCc3ccccc3)c(=O)c2=O)cc1C`, the inhibition came to 14.3%. For `CC(C)(C)c1ccc(-c2nc(NC(=O)CSc3ncnc4sc5c(c34)CCCC5)ns2)cc1` the value was -15%; for `Cc1ccc(-n2ncc3c(NCc4ccccc4)ncnc32)cc1Cl`, -4.67%.

For the compound `Cc1ccc(CN2CCN(c3ccccc3)CC2)o1`, the inhibition was active: 69.9%. In the case of `COc1cccc(CN2C(=O)c3ccccc3Sc3ccc(C(=O)OCc4ccco4)cc32)c1`, the inhibition was 9.75%. The same measure for `Cc1cccc(NC(=O)CSc2nc3ccc(NC(=O)c4ccccc4)cc3s2)c1`: 1.6%; for `CC1=C(c2ccc(Cl)cc2)S(=O)(=O)N=C1N1CCN(c2cccc(C)c2C)CC1`: 8.45%.

`Fc1ccc(NCc2ccccc2-c2nnc(-c3ccccc3Cl)o2)cc1`: the inhibition amounted to 4.56%. For `CCOc1ccc(-c2cc3nc(C4CCN(C(=O)OC(C)(C)C)CC4)c(C(=O)Nc4cccc(CC)c4)cn3n2)cc1` the value was -0.288%; for `CC(=O)N1c2ccc(S(=O)(=O)N3CCCCCC3)cc2CC1C(=O)NCc1cccc(C)c1` (stereo not given), 7.38%; for `COc1cc(NC(=O)Cn2c(=O)cc(C)c3c(C)nn(-c4ccc(C)cc4)c32)cc(OC)c1`, -3.41%. For `Cc1ccc(CNc2nnc(C)c3nnn(Cc4ccc(F)cc4)c23)cc1` the value was 12.6%; for `O=C(NCCc1csc(-c2cccnc2)n1)c1cccc(Cl)c1`, 14.4%. `Cc1ccc2ncc(C(=O)c3ccc(C)c(C)c3)c(S(=O)(=O)c3ccc(F)cc3)c2c1`: the inhibition was -12.6%. Take `CCOc1ccc(CC(=O)NCCc2sc3nc(-c4ccc(F)cc4)nn3c2C)cc1`: the inhibition was -23%. Regarding `Cc1nc(SCc2cccc(Cl)c2)nc2c1CCCC2`, the inhibition worked out at 11.3%. For the compound `Cc1ccccc1Cn1c(SCc2ccc(C(=O)NC3CCCCC3)cc2)nc2ccncc21`, the inhibition was -15.4%. As for `CC(C)N(Cc1nc(-c2ccc(Cl)cc2)no1)C(=O)c1ccc(C(C)(C)C)cc1`, the inhibition was -7.58%. The same measure for `Cc1cc(Cl)ccc1NS(=O)(=O)c1c(C(=O)N2CCC(C)CC2)c(C)n(C)c1C`: 2.42%; for `CC1CCCN(c2nc3c(-c4ccc(Cl)cc4)nnn3c3ccccc23)C1` (stereo not given): -7.79%; for `Cc1ccc(-c2csc(-c3cc4c([nH]c3=O)CC(c3ccccc3)CC4=O)n2)cc1` (stereo not given): 10.9%. The same measure for `N#Cc1c(N)sc(=S)c2c1CCN(Cc1ccccc1)C2`: active: 31.6%; for `COc1ccc2oc(=O)c(-c3nnc(-c4ccc(C)cc4)o3)cc2c1`: -6.57%. The same measure for `CCN(CC)S(=O)(=O)c1ccc2c(c1)N(CC(=O)NCc1ccccc1)C(=O)C1CCCCN21` (stereo not given): -14.4%. For `Cc1ccc(N(C(=O)c2sc(C)nc2C)C(C(=O)NCc2ccco2)c2ccccc2)cc1` (stereo not given), the inhibition was active: 43.6%. For `Cc1cc2c(cc1S(=O)(=O)Nc1ccc(OC(F)(F)F)cc1)OCC(=O)N2` the value was 20.9%; for `O=C(CSc1nc2ccc(N3CCOCC3)cc2c(=O)n1CCc1ccccc1)NCC1CCCO1` (stereo not given), active: 40.6%; for `NC(=O)c1c(NC(=O)CS(=O)(=O)c2ccc(Cl)cc2)sc2c1CCCCC2`, 14.1%.

In the case of `CC(C)NCCOCCOc1ccc(Cl)cc1Br`, the inhibition was active: 66.9%. The same measure for `Cc1ccc(Nc2c(-c3ccc(Br)o3)nc3ccccn23)cc1`: 18.5%; for `COc1ccc(S(=O)(=O)NCc2nc3nc(C)cc(C)n3n2)cc1`: 11.5%; for `CCOc1ccc(NC(=O)CSC2=Nc3ccccc3C3=NC(CCC(=O)NCc4ccco4)C(=O)N23)cc1` (stereo not given): -27.8%. For `Cc1ccc(Cl)cc1N1CCN(C(=O)Cn2ncc3c4ccccc4n(C)c3c2=O)CC1`, the inhibition was -7.29%. Turning to `CCC(=O)Oc1c(Sc2ccc(Cl)cc2)c(C)nn1-c1ccccc1`, the inhibition is -0.176%.

As to `Cc1ccc(-c2nc(CS(=O)(=O)CC(=O)Nc3ccc(Br)cc3F)c(C)o2)cc1`, the inhibition is -9.37%.

Take `Cc1ccccc1NC(=O)c1c(C)oc2ccc(O)c(CN3CCOCC3)c12`: the inhibition was found to be 8.38%. In the case of `CCn1c(=O)c2cc(C(=O)NCCCN3CCN(C)CC3)sc2c2ccccc21`, the inhibition was -0.773%. As for `COc1ccc(-c2nc3c(c(SC)n2)Cc2c(CO)cnc(C)c2O3)cc1`, the inhibition was 13%. For `CN1CCN(CCOCCOc2ccc(Br)cc2Cl)CC1`, the inhibition is active: 30.7%.
